From PubChem BioAssay AID1240 (Sanford-Burnham Center for Chemical Genomics, 2008) come the findings set out here.

Structures are written as SMILES. Screen size: about 50,000 compounds; about 800 (1.6%) showed an effect of 50% or more. Some of the results follow.

The experiment addresses Bcl-2-like protein 10 (Homo sapiens) (UniProt Q9HD36). Put plainly: TR3 peptide-Bcl-B binding displacers, biochemical primary FP assay, phenotype converters (AID 1240).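 Further: 0% = Bcl-B with tracer peptide and DMSO and 100% = tracer peptide lacking Bcl-B.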 Conditions: GST-Bcl-B / FITC-TR3 peptide fluorescence polarization; stronger effect = higher value; compound at 3.75 mg/L. On the technique in general: Fluorescence polarisation rises when a labelled molecule tumbles more slowly, as on binding a larger partner.
Chain of UniProt Q9HD36 (Q9HD36 whole entry, looked up): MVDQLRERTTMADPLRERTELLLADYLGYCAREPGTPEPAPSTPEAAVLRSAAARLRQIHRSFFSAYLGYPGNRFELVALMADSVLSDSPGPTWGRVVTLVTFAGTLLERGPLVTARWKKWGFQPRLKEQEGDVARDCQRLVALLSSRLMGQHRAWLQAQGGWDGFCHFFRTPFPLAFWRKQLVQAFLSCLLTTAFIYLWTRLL
In the case of `COc1ccc(OC)c(/C=C2\SC(N3CCCCC3)=NC2=O)c1`, the displacement was -10.4%.

On to `Cn1/c(=N/N=C/c2cccc(Cl)c2Cl)sc2ccccc21`, for which the displacement came to 17.1%.

On to `CN1CCN(Cn2c(O)c(N=NC(=O)CSc3nc4ccccc4o3)c3ccccc32)CC1`, for which the displacement was found to be 17.5%.

For `Cc1cc2c3c(ccc(C)c3n1)N=CN2c1ccccc1`, the displacement is -3.3%.

Consider `COc1ccc(N2C(=O)c3cccc4c(N5CCNCC5)ccc(c34)C2=O)cc1`, for which the displacement was found to be 37.2%.

With `Cc1ccsc1/C=C(\C#N)c1nc(-c2ccc3c(c2)OCO3)cs1`, the displacement is -27%.

Take `COc1ccc(/C=c2\sc3n(c2=O)C(c2ccc(OC)cc2)C(C(=O)OC(C)C)=C(C)N=3)cc1` (stereo not given): the displacement amounted to 10%.

For the molecule `CCCC(=O)C1=C(N2CCCCC2)CC(C)(C)CC1=O`, the displacement is -0.9%.

Take `COc1ccc(Br)cc1-n1c(=O)[nH]c2cc(C(F)(F)F)ccc21`: the displacement is -50.3%.

Turning to `COc1ccc(NC(=O)/C(=C\c2cccnc2)NC(=O)c2ccccc2)cc1`, the displacement is -9.6%.

Turning to `COc1ccc(S(=O)(=O)N(CC(=O)Nc2ccc(Cl)cc2C)Cc2ccccc2)cc1OC`, the displacement is -18.2%.

Turning to `O=C(Cc1ccccc1)Nc1ccccc1I`, the displacement is -7.4%.

For the molecule `Cc1c(NC(NC(=O)COc2ccccc2)C(Cl)(Cl)Cl)c(=O)n(-c2ccccc2)n1C` (stereo not given), the displacement was determined as 10.8%.

As for `COc1ccccc1C(=O)N1CCN(Cc2ccccc2F)CC1`, the displacement is -1.6%.

As for `CCCCNC(=S)NNC(=O)C12CC3CC(CC(C3)C1)C2`, the displacement was -13.1%.

For the molecule `Cc1cc(C)n(C(=O)CCCOc2ccc(Cl)cc2Cl)n1`, the displacement is -2.5%.

Consider `CCN(CC)C(=O)Cn1nc(C)c2ccccc2c1=O`, for which the displacement is -8.5%.

For `O=C(c1cc2ccccc2o1)N1CCN(c2ccc([N+](=O)[O-])cc2)CC1`, the displacement was determined as 16.1%.

Consider `O=C(NC(=S)Nc1cccc(-c2nc3ccccc3o2)c1)c1ccco1`, for which the displacement was determined as 17.3%.

Turning to `COc1cccc(C(=O)N2CCN(Cc3ccc(OC)c(Br)c3)CC2)c1`, the displacement is 0.9%.

For `COc1ccc(S(=O)(=O)Nc2ccc(N3CCOCC3)cc2)cc1[N+](=O)[O-]`, the displacement is -5.8%.

As for `COc1cccc(N=c2ssc3c2-c2ccc(OC)cc2NC3(C)C)c1`, the displacement was -10.3%.

With `COc1cccc(CN2CCN(S(=O)(=O)c3ccccc3)CC2)c1`, the displacement is -15.4%.

Take `COC(=O)c1cccc(NC(=O)c2c(Cl)ccc(Cl)c2OC)c1`: the displacement was 1.6%.

`O=C(Nc1cc([N+](=O)[O-])ccc1F)C(c1ccccc1)c1ccccc1`: the displacement was found to be 0.9%.

Turning to `O=C1c2ccccc2C(=O)N1c1ccc(OCC(O)COC2CCCCC2)cc1` (stereo not given), the displacement is -17.6%.

For `CC(=O)c1ccc(N2C(=O)CC(N3CCOCC3)C2=O)cc1` (stereo not given), the displacement was -2.6%.

`N#C/C(=C\c1ccc(-c2ccc(Br)cc2)o1)C(=O)N1CCCCC1`: the displacement is -19.3%.

For the molecule `COc1ccc(NC(=O)CSc2ccccn2)cc1`, the displacement turned out to be 7.8%.

As for `COc1cc(OC)cc(C(=O)N2CCCC2)c1`, the displacement is -4.8%.
